Data from the supplement of paper PMC10126150.
Sequences with one replicate were seen in a single cluster, so their values are uncertain.

These sequences were tested on ATP (assay: switch fluorescence ratio, 500 uM ATP over buffer (Cy3 cluster intensity, sum of 5 cycles each) (fold (ratio)); higher = stronger signal-on switching upon ATP binding; sequences stand for … in TCGTCGGCAGCGTCAGATGTGTATAAGAGACAGTTTTTTTTTTTTTTTTTTTTTTTTT…TC). Settings: aptamer strand: ATP DNA aptamer (quencher-CACCTGGGGGAGTATTGCGGAGGAAGG + anchor), 100 nM annealed; ATP concentration: 500 uM; one replicate.
Procedure, shortened: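 Switching-strand clusters labelled with Cy3 on a modified Illumina MiSeq flow-cell were annealed to 100 nM quencher-labelled ATP aptamer, imaged in selection buffer, and re-imaged after 15 min with 500 uM ATP at 22 °C. This was done over five cycles with NaOH stripping and re-annealing in between. The fluorescence ratio is summed target-cycle over summed buffer-cycle Cy3 intensity per cluster, averaged per switch-domain sequence, excluding clusters outside 100-1000 RFU.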
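Further: ATP exposure 15 min at 22 °C before imaging.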

| Sequence | switch fluorescence ratio |
| --- | --- |
| GCGGTGTCGC | 0.974 |
| GCGGTTGCAG | 1.02 |
| GCGGTTGGCA | 0.991 |
| GCGGTTTGAA | 0.976 |
| GCGTAACCGG | 1.01 |
| GCGTAATAAG | 0.987 |
| GCGTAATCC | 1.9 |
| GCGTAATTTG | 0.959 |
| GCGTACAGGG | 1.03 |
| GCGTATATCA | 0.989 |
| GCGTATATGG | 1.01 |
| GCGTCAAGT | 0.998 |
| GCGTCAGACT | 1.04 |
| GCGTCGATAC | 5.78 |
| GCGTCTACTG | 0.989 |
| GCGTGAGGGT | 0.987 |
| GCGTGGGGAT | 1.03 |
| GCGTGTAATA | 1.01 |
| GCGTTATGG | 1.02 |
| GCGTTATTGT | 0.951 |
| GCGTTCCCAG | 1.08 |
| GCGTTCGCCT | 0.964 |
| GCGTTCTTCG | 1.04 |
| GCGTTGATTA | 1.01 |
| GCGTTGGTTG | 1.03 |
| GCGTTGTCGG | 1.01 |

| Sequence | switch fluorescence ratio |
| --- | --- |
| GCGTTGTGAG | 1.01 |
| GCGTTTAGCG | 1.02 |
| GCGTTTCAAG | 0.972 |
| GCGTTTGAAT | 0.964 |
| GCTAAAACGG | 1 |
| GCTAAAACTA | 1.07 |
| GCTAAAGATA | 1.02 |
| GCTAAATATA | 0.996 |
| GCTAATAATG | 0.97 |
| GCTAATCAAG | 0.989 |
| GCTAATCCGG | 0.987 |
| GCTAATCTCA | 1.06 |
| GCTAATTCAC | 1.09 |
| GCTAATTTTA | 0.969 |
| GCTACAGACG | 1.21 |
| GCTACATCAT | 1.03 |
| GCTACCATGC | 1.07 |
| GCTACGTAAT | 6.24 |
| GCTACTAAAC | 1.14 |
| GCTACTAGTC | 1 |
| GCTACTCACG | 1.56 |
| GCTAGACCCG | 0.999 |
| GCTAGACTTC | 1.06 |
| GCTAGAGTC | 0.992 |
| GCTAGCACAC | 1.12 |
| GCTAGCACCT | 1.09 |

| Sequence | switch fluorescence ratio |
| --- | --- |
| GCTAGCATTA | 1 |
| GCTAGCTACG | 0.997 |
| GCTAGGAAAT | 1 |
| GCTAGGCTTC | 0.967 |
| GCTAGGCTTT | 0.993 |
| GCTAGGGAGG | 0.967 |
| GCTAGGTATA | 0.993 |
| GCTAGTAGGT | 1 |
| GCTAGTATTT | 0.926 |
| GCTATACGG | 1.39 |
| GCTATAGAGC | 1 |
| GCTATAGGCT | 1.03 |
| GCTATCAATA | 1.08 |
| GCTATCGCGT | 0.999 |
| GCTATGCGCT | 0.979 |
| GCTATGGCAT | 0.985 |
| GCTATGGTTC | 0.999 |
| GCTATGTATA | 0.987 |
| GCTATTACAT | 1.02 |
| GCTCACCGCT | 1.14 |
| GCTCACTGG | 1.05 |
| GCTCAGCATA | 1.98 |
| GCTCAGTCAG | 1.3 |
| GCTCAGTCAT | 1.07 |
| GCTCCGGAGG | 1.02 |
| GCTCCGGGGT | 1.97 |

| Sequence | switch fluorescence ratio |
| --- | --- |
| GCTCCGTGTG | 1.97 |
| GCTCCTATCT | 1.1 |
| GCTCGAGACT | 1.08 |
| GCTCGATCTC | 0.99 |
| GCTCGGACGG | 1.01 |
| GCTCGGCTTG | 0.988 |
| GCTCGTA | 0.957 |
| GCTCGTCCGG | 1.02 |
| GCTCTAGCAC | 1.07 |
| GCTCTCGGAC | 1.7 |
| GCTCTCTAT | 1.04 |
| GCTCTTGCGT | 0.97 |
| GCTCTTTTCA | 0.998 |
| GCTGAACTCT | 1.05 |
| GCTGACGCTA | 2.27 |
| GCTGACTGTG | 1.01 |
| GCTGAGACTT | 1.03 |
| GCTGATGGCG | 1.02 |
| GCTGCACATG | 1 |
| GCTGCCAGCG | 0.977 |
| GCTGCGGGCA | 0.982 |
| GCTGCTACTT | 1.04 |
| GCTGCTGCGA | 1.04 |
| GCTGCTGTCC | 1.04 |
| GCTGCTTATT | 1.03 |
| GCTGCTTTTG | 1.06 |

| Sequence | switch fluorescence ratio |
| --- | --- |
| GCTGGACTTT | 1.02 |
| GCTGGAGGCG | 0.981 |
| GCTGGAGTAA | 1.3 |
| GCTGGATACC | 0.98 |
| GCTGGCCCCG | 0.95 |
| GCTGGCGTG | 1 |
| GCTGGCTCAT | 0.979 |
| GCTGGGAGCT | 1.02 |
| GCTGGGATAA | 0.965 |
| GCTGGGCGGG | 1 |
| GCTGGTATAG | 0.974 |
| GCTGGTGTGT | 1.03 |
| GCTGTACCAA | 1.04 |
| GCTGTACGCC | 1.33 |
| GCTGTAGG | 1.03 |
| GCTGTGCATT | 1.02 |
| GCTGTGCTAA | 1.05 |
| GCTGTTATAC | 1.42 |
| GCTGTTCGAC | 0.997 |
| GCTGTTGGCC | 0.993 |
| GCTGTTTGCG | 1.01 |
| GCTGTTTTAT | 0.982 |
| GCTTAAACCG | 1.05 |
| GCTTAAAGGT | 1.02 |
| GCTTAAGATT | 1.1 |
| GCTTAAGGGA | 0.982 |

| Sequence | switch fluorescence ratio |
| --- | --- |
| GCTTAATGCT | 1 |
| GCTTAATTGC | 1.05 |
| GCTTACGTAG | 0.999 |
| GCTTAGAT | 1.01 |
| GCTTAGCCTC | 1 |
| GCTTAGGGAT | 1.05 |
| GCTTAGTTGC | 0.988 |
| GCTTATAGGG | 1.04 |
| GCTTATTTGT | 1 |
| GCTTCAACAT | 1.03 |
| GCTTCACCG | 1.13 |
| GCTTCACGGG | 1.01 |
| GCTTCCATTA | 1.03 |
| GCTTCTATTT | 1.04 |
| GCTTGAGTCT | 0.969 |
| GCTTGCTGAC | 0.989 |
| GCTTGCTTAC | 1.22 |
| GCTTGCTTAT | 1.01 |
| GCTTGCTTG | 0.99 |
| GCTTGGCGA | 0.97 |
| GCTTGGCTGG | 1 |
| GCTTGGGAAT | 0.979 |
| GCTTGGGGTA | 0.951 |
| GCTTGGTCCG | 1.03 |
| GCTTTAACCG | 1.02 |
| GCTTTACA | 1.03 |

| Sequence | switch fluorescence ratio |
| --- | --- |
| GCTTTAGTTA | 0.999 |
| GCTTTCACCA | 1.03 |
| GCTTTCATGG | 0.972 |
| GCTTTCCGCG | 1.11 |
| GCTTTCGTTT | 0.966 |
| GCTTTGAGCA | 0.947 |
| GCTTTGTGTT | 1.05 |
| GCTTTTATTT | 0.994 |
| GGAAAACAGA | 0.993 |
| GGAAAATAAC | 1.01 |
| GGAAACCTCG | 1.22 |
| GGAAACGCTC | 1.03 |
| GGAAAGGTAG | 1.03 |
| GGAAATAGAT | 0.95 |
| GGAAATGCTA | 1.03 |
| GGAACCGAAC | 1.94 |
| GGAACCGAAT | 1 |
| GGAACGAGGT | 1.01 |
| GGAACGCGGG | 0.956 |
| GGAACGCTGG | 1.04 |
| GGAACGGGTT | 1.01 |
| GGAACTTAC | 2.3 |
| GGAAGACACG | 1.03 |
| GGAAGAGGGA | 1.24 |
| GGAAGAGGGC | 0.975 |
| GGAAGATCCG | 0.963 |

| Sequence | switch fluorescence ratio |
| --- | --- |
| GGAAGCATCG | 0.998 |
| GGAAGGACAC | 1.25 |
| GGAAGGACAG | 1.03 |
| GGAAGGCCCA | 1.01 |
| GGAAGGCTC | 0.998 |
| GGAAGGGTGC | 1.06 |
| GGAAGTTTAG | 1.01 |
| GGAATAGGGC | 0.972 |
| GGAATATCGG | 0.957 |
| GGAATATTCA | 0.968 |
| GGAATGATG | 0.983 |
| GGAATGTAGC | 0.995 |
| GGAATGTGCT | 0.973 |
| GGAATTTTCA | 0.988 |
| GGACAAGGG | 1.03 |
| GGACACACTC | 1.29 |
| GGACAGCCCC | 1.03 |
| GGACAGGTCA | 1.03 |
| GGACAGGTTC | 0.97 |
